Assay results taken from publication PMC11714167.
No constants are given. Whether binding was seen depends on the method and setting. In cells and extracts the contact can be indirect. Some binding calls cover weakened binding; strength is not graded here. For some assays here: Sequences can lack the tags named with a protein. Values belong to the binder of their own block, whether it stands above or below them.

Amino acid sequences for entries named in this document (tags omitted). A change or cut given only in a name is not applied to a line headed by its entry. Residues count along the entry.
UniProt Q9NZQ7, residues 19-290: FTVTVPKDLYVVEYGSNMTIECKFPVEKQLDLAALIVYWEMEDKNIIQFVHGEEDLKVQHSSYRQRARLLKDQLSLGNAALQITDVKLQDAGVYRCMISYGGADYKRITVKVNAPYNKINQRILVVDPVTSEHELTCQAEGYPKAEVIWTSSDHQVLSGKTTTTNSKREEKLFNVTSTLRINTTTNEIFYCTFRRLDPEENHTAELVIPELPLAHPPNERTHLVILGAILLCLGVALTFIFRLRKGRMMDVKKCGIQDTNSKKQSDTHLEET
UniProt P19474: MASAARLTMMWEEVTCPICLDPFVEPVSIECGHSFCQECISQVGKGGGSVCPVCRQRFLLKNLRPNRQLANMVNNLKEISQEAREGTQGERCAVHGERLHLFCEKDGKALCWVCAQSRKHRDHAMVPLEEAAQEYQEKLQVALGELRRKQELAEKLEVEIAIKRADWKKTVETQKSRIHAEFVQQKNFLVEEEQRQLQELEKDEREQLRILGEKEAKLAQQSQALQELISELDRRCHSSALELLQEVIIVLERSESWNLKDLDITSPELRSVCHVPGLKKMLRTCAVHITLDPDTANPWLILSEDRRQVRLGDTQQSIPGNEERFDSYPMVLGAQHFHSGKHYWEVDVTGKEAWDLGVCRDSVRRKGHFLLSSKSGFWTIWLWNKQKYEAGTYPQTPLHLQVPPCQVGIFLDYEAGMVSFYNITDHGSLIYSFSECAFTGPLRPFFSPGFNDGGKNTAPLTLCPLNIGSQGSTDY
TRIM21 PRY-SPRY domain: residues 287-465 of P19474

How the values were obtained:
[1] = molecular target: AXL (endogenous) (human (endogenous in 786-O, 769-P, Caki-1)) (UniProt P30530); assay: co-IP; co-IP of AXL with NF-κB signalling proteins (Figure S24A,B) and of AKT with IKKα (Figure S24D); cells not given
[2] = molecular target: AXL (endogenous) (human (endogenous in 786-O, 769-P, Caki-1)) (UniProt P30530); assay: co-IP; co-IP of TRIM21 with endogenous AXL in 786-O cells transfected with empty vector or Flag-tagged STAMBPL1 vector; conversely STAMBPL1 KD (Figure S18F)
[3] = molecular target: PD-L1 (human (endogenous in KIRC cells)) (UniProt Q9NZQ7); assay: co-IP; endogenous proteins; whole-cell extracts of KIRC cell lines (786-O, 769-P, Caki-1) immunoprecipitated with specific antibody or control IgG, protein A/G beads, washed four times with lysis buffer (20 mM Tris-HCl, 125 mM NaCl, 5 mM MgCl2, 0.2 mM EDTA, 0.1% NP-40); STAMBPL1/AXL also after Gas6 (500 ng/mL, 6 h), unaffected; AXL with HRS, STAM1, STAM2 stronger with K63-ubiquitin overexpression, STAMBPL1 KD or TRIM21 overexpression
[4] = molecular target: TRIM21 (endogenous) (human (endogenous in 786-O, 769-P, Caki-1)) (UniProt P19474); assay: as above
[5] = molecular target: T1, STAMBPL1-USP8_dimer (human) (UniProt Q96FJ0); assay: co-IP; AXL deletion mutants (AXL-ΔIC, AXL-ΔEC+TM) with STAMBPL1-USP8_dimer (Figure S12B) or the TRIM21 PRY-SPRY domain (Figure S16B); cells and tags not given
T1 sequence: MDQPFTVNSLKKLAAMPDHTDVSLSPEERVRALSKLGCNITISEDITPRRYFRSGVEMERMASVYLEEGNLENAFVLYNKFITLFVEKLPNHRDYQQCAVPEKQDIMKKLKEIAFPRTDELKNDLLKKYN

[6] = molecular target: TRIM21 PRY-SPRY domain (human) (UniProt P19474); assay: as above

B2: Flag-tagged STAMBPL1 (786-O) (enzyme, UniProt Q96FJ0 1-436)
chain: MDQPFTVNSLKKLAAMPDHTDVSLSPEERVRALSKLGCNITISEDITPRRYFRSGVEMERMASVYLEEGNLENAFVLYNKFITLFVEKLPNHRDYQQCAVPEKQDIMKKLKEIAFPRTDELKNDLLKKYNVEYQEYLQSKNKYKAEILKKLEHQRLIEAERKRIAQMRQQQLESEQFLFFEDQLKKQELARGQMRSQQTSGLSEQIDGSALSCFSTHQNNSLLNVFADQPNKSDATNYASHSPPVNRALTPAATLSAVQNLVVEGLRCVVLPEDLCHKFLQLAESNTVRGIETCGILCGKLTHNEFTITHVIVPKQSAGPDYCDMENVEELFNVQDQHDLLTLGWIHTHPTQTAFLSSVDLHTHCSYQLMLPEAIAIVCSPKHKDTGIFRLTNAGMLEVSACKKKGFHPHTKEPRLFSICKHVLVKDIKIIVLDLR
binding [2]: binds

B3: STAM Binding Protein Like 1 (endogenous) (enzyme, UniProt Q96FJ0 1-436)
chain: B2 chain
binding [3]: no binding
binding [4]: no binding

B4: IKKβ (enzyme, UniProt O14920 1-756)
chain: MSWSPSLTTQTCGAWEMKERLGTGGFGNVIRWHNQETGEQIAIKQCRQELSPRNRERWCLEIQIMRRLTHPNVVAARDVPEGMQNLAPNDLPLLAMEYCQGGDLRKYLNQFENCCGLREGAILTLLSDIASALRYLHENRIIHRDLKPENIVLQQGEQRLIHKIIDLGYAKELDQGSLCTSFVGTLQYLAPELLEQQKYTVTVDYWSFGTLAFECITGFRPFLPNWQPVQWHSKVRQKSEVDIVVSEDLNGTVKFSSSLPYPNNLNSVLAERLEKWLQLMLMWHPRQRGTDPTYGPNGCFKALDDILNLKLVHILNMVTGTIHTYPVTEDESLQSLKARIQQDTGIPEEDQELLQEAGLALIPDKPATQCISDGKLNEGHTLDMDLVFLFDNSKITYETQISPRPQPESVSCILQEPKRNLAFFQLRKVWGQVWHSIQTLKEDCNRLQQGQRAAMMNLLRNNSCLSKMKNSMASMSQQLKAKLDFFKTSIQIDLEKYSEQTEFGITSDKLLLAWREMEQAVELCGRENEVKLLVERMMALQTDIVDLQRSPMGRKQGGTLDDLEEQARELYRRLREKPRDQRTEGDSQEMVRLLLQAIQSFEKKVRVIYTQLSKTVVCKQKALELLPKVEEVVSLMNEDEKTVVRLQEKRQKELWNLLKIACSKVRGPVSGSPDSMNASRLSQPGQLMSQPSTASNSLPEPAKKSEELVAEAHNLCTLLENAIQDTVREQDQSFTALDWSWLQTEEEEHSCLEQAS
binding [1]: no binding

B5: AXL-ΔEC+TM (domain or fragment, UniProt P30530 473-894)
chain: HRRKKETRYGEVFEPTVERGELVVRYRVRKSYSRRTTEATLNSLGISEELKEKLRDVMVDRHKVALGKTLGEGEFGAVMEGQLNQDDSILKVAVKTMKIAICTRSELEDFLSEAVCMKEFDHPNVMRLIGVCFQGSERESFPAPVVILPFMKHGDLHSFLLYSRLGDQPVYLPTQMLVKFMADIASGMEYLSTKRFIHRDLAARNCMLNENMSVCVADFGLSKKIYNGDYYRQGRIAKMPVKWIAIESLADRVYTSKSDVWSFGVTMWEIATRGQTPYPGVENSEIYDYLRQGNRLKQPADCLDGLYALMSRCWELNPQDRPSFTELREDLENTLKALPPAQEPDEILYVNMDEGGGYPEPPGAAGGADPPTQPDPKDSCSCLTAAEVHPAGRYVLCPSTTPSPAQPADRGSPAAPGQEDGA
binding [5]: binds
binding [6]: binds

Next, values leading:

binding [1]: no binding
B1: TAK1 (enzyme, UniProt O43318 1-606)
chain: MSTASAASSSSSSSAGEMIEAPSQVLNFEEIDYKEIEVEEVVGRGAFGVVCKAKWRAKDVAIKQIESESERKAFIVELRQLSRVNHPNIVKLYGACLNPVCLVMEYAEGGSLYNVLHGAEPLPYYTAAHAMSWCLQCSQGVAYLHSMQPKALIHRDLKPPNLLLVAGGTVLKICDFGTACDIQTHMTNNKGSAAWMAPEVFEGSNYSEKCDVFSWGIILWEVITRRKPFDEIGGPAFRIMWAVHNGTRPPLIKNLPKPIESLMTRCWSKDPSQRPSMEEIVKIMTHLMRYFPGADEPLQYPCQYSDEGQSNSATSTGSFMDIASTNTSNKSDTNMEQVPATNDTIKRLESKLLKNQAKQQSESGRLSLGASRGSSVESLPPTSEGKRMSADMSEIEARIAATTAYSKPKRGHRKTASFGNILDVPEIVISGNGQPRRRSIQDLTVTGTEPGQVSSRSSSPSVRMITTSGPTSEKPTRSHPWTPDDSTDTNGSDNSIPMAYLTLDHQLQPLAPCPNSKESMAVFEQHCKMAQEYMKVQTEIALLLQRKQELVAELDQDEKDQQNTSRLVQEHKKLLDENKSLSTYYQQCKKQLEVIRSQQQKRQGTS

binding [1]: no binding
B6: TAB1 (protein, UniProt Q15750 1-504)
chain: MAAQRRSLLQSEQQPSWTDDLPLCHLSGVGSASNRSYSADGKGTESHPPEDSWLKFRSENNCFLYGVFNGYDGNRVTNFVAQRLSAELLLGQLNAEHAEADVRRVLLQAFDVVERSFLESIDDALAEKASLQSQLPEGVPQHQLPPQYQKILERLKTLEREISGGAMAVVAVLLNNKLYVANVGTNRALLCKSTVDGLQVTQLNVDHTTENEDELFRLSQLGLDAGKIKQVGIICGQESTRRIGDYKVKYGYTDIDLLSAAKSKPIIAEPEIHGAQPLDGVTGFLVLMSEGLYKALEAAHGPGQANQEIAAMIDTEFAKQTSLDAVAQAVVDRVKRIHSDTFASGGERARFCPRHEDMTLLVRNFGYPLGEMSQPTPSPAPAAGGRVYPVSVPYSSAQSTSKTSVTLSLVMPSQGQMVNGAHSASTLDEATPTLTNQSPTLTLQSTNTHTQSSSSSSDGGLFRSRPAHSLPPGEDGRVEPYVDFAEFYRLWSVDHGEQSVVTAP
